Among all 43,000 compounds or so, about 200 (0.47%) were called active. Not shown: some 12% with an inconclusive outcome. The call rests on the fitted dose curve; in most records, active means well fitted cell-killing curve with a large enough effect; inconclusive means small, poorly fitted or top-dose-only effect, or effect the other way; inactive means flat fitted curve, though single readings scatter. The list shows a part of the results.
test: Cell viability qHTS assay in S16 Pmp22-F2sN cells; conditions: S16 Pmp22-F2sN Schwann cells (luciferase reporters placed in the Pmp22 gene) viability, CellTiter-Glo, 24 h; series mostly up to 57.5 µM; activity change, negative = cytotoxicity: at the top concentration; further: nearly all actives have a fitted effect of over 65% in size
Method in brief: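 Rat S16 Schwann reporter line, 24 h treatment with library compounds delivered at 23 nL per well. Cell viability by CellTiter-Glo luminescence.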
On the % scale 0 is the no-effect control and ±100 the full control effect.

| Compound | activity change, negative = cytotoxicity |
| --- | --- |
| Cc1c(C(N)=O)nnn1-c1ccc(Br)cc1 | inactive: 10.7% |
| CCN(CC)CCNC(=O)C1CCCN(c2ncnc3onc(C)c23)C1 (stereo not drawn) | inactive: -4.19% |
| Cc1ccc(C)c(-c2csc(-c3c(N)c(C(=O)c4ccc5c(c4)OCO5)n4ccccc34)n2)c1 | inactive: -3.73% |
| COc1ccc(CCNC(=O)Cn2nc(C)n3c(cc4occc43)c2=O)cc1OC | inactive: -2.68% |
| CCOC(=O)c1c(S(=O)(=O)N2CCCC(C(=O)N3CCN(c4ccc(F)cc4)CC3)C2)c(C)n(C)c1C (stereo not drawn) | inactive: -0.852% |
| COc1ccc(CCNC(=O)Cn2ncc3c(C)n(Cc4ccccc4F)c(C)c3c2=O)cc1OC | inactive: 3.12% |
| CCOc1ccc(NC(=O)N(Cc2c[nH]c3ccccc23)C2CCCCC2)cc1 | inactive: 5.13% |
| Nc1cc(=O)nc(SCC(=O)Nc2ccc(F)cc2)n1-c1ccc(Cl)cc1 | inactive: -6.17% |
| COc1cc(OC)c(NC(=O)CCn2cnc3onc(-c4ccc(F)cc4)c3c2=O)cc1Cl | inactive: -19.4% |
| CCCCNC(=O)c1[nH]c2ccccc2c1Sc1ccc(C)cc1 | inactive: 15.2% |
| Cc1ccc(CNCc2c(C(=O)O)n(Cc3ccccc3C)c3cc(C)ccc23)cc1 | inactive: -0.791% |
| COc1ccc(C2(CNC(=O)C(=O)Nc3cccc(C(F)(F)F)c3)CCCC2)cc1OC | inactive: -5.96% |
| Cc1ccc(S(=O)(=O)Nc2cccc(-c3ccc(N4CCCCC4)nn3)c2)s1 | inactive: -16.6% |
| CC(=O)c1cccc(NC(=O)c2nc(-c3ccc(C)cc3)n3c2CCCCC3)c1 | inactive: -15.9% |
| Cc1cccc(NC(=O)C2CCCN(S(=O)(=O)c3cccc4nonc34)C2)c1 (stereo not drawn) | inactive: 2.1% |
| O=C(NCCc1ccc(Cl)cc1)c1ccc(CSCc2ccccc2Cl)o1 | inactive: -12.1% |
| Cc1ccc(NC(=O)C(=O)NCc2ccc(Cl)cc2)cc1 | inactive: 3.21% |
| CCOC(=O)C(C)Sc1nnc2ccc3ccccc3n12 (stereo not drawn) | inactive: 14.5% |
| COc1ccccc1OCC(=O)Nc1nc2c(s1)CC(C)CC2 (stereo not drawn) | inactive: 0.558% |
| Cc1ccc2nc(-c3ccc(Cl)cc3)cc(C(=O)OCC(=O)c3ccccc3)c2c1 | inactive: 1.79% |
| COc1ccc(C(=O)NCC(c2ccc(N(C)C)cc2)N2CCCC2)c(OC)c1 (stereo not drawn) | inactive: 5.55% |
| Cc1cccc(-c2nc(CSc3nncn4c3cc3oc(C)cc34)c(C)o2)c1 | inactive: -1.09% |
| CCC(Cn1nnc2ccccc2c1=O)NC(=O)Nc1ccc(C)cc1C (stereo not drawn) | inactive: -3.65% |
| COc1ccc(NC(=O)c2sc3nc4c(cc3c2N)CN(Cc2ccccc2)CC4)cc1 | inactive: 2.16% |
| COc1ccc(C(=O)NCCc2sc(-c3ccc(F)cc3)nc2C)cc1OC | inactive: -18.7% |
| CC1CCC(NC(=O)C2(C)Cc3ccccc3C(=O)N2Cc2ccc(F)cc2)CC1 (stereo not drawn) | inactive: 25.1% |
| Cc1ccc(CNC(=O)CCc2c(C)nc3nc(CNC(=O)OC(C)(C)C)nn3c2C)cc1 | inactive: -17% |
| CC(=O)c1cccc(Nc2ccc3cc(S(=O)(=O)N4CCC(C)CC4)ccc3n2)c1 | inactive: -6.04% |

Reference: PubChem BioAssay AID1508642 (National Center for Advancing Translational Sciences (NCATS), 2021)
